The text below walks through data of the supplement of paper PMC12645437, “Orthogonal IMiD-Degron Pairs Induce Selective Protein Degradation in Cells” (ACS Chemical Biology, 2025).

The other results are listed elsewhere or left out.

The labels stand for the following.
B1: Q9UKT9 (peptide)
chain: FICEICGHSFTQKGNLLRHIKL
B2: Q9UKT9 (peptide)
chain: FFCNVCGADFTQKGNLLRHIKL
B3: Q9UKT9 (peptide)
chain: FACEICGAQFTQKGNLLRHIKL
B4: Q9UKT9 (peptide)
chain: FGCEICGAIFTQKGNLLRHIKL
B5: Q9UKT9 (peptide)
chain: FVCEICGAGFTQKGNLLRHIKL
B6: Q9UKT9 (peptide)
chain: FDCEVCGAMFTQKGNLLRHIKL
B7: Q9UKT9 (peptide)
chain: LRCPICGFQCTQKGNLLRHIKL
B8: Q9UKT9 (peptide)
chain: FVCNQCGAGFTQKGNLLRHIKL
B9: Q9UKT9 (peptide)
chain: FYCPICGHHFTQKGNLLRHIKL
B10: Q9UKT9 (peptide)
chain: FVCDICGALFTQKGNLLRHIKL
B11: Q9UKT9 (peptide)
chain: FQCNQCGHNFTQKGNLLRHIKL
B12: Q9UKT9 (peptide)
chain: FCCPICGHEFTQKGNLLRHIKL
B13: Q9UKT9 (peptide)
chain: FICNICGAAFTQKGNLLRHIKL
B14: Q9UKT9 (peptide)
chain: FDCEQCGAAFTQKGNLLRHIKL
B15: Q9UKT9 (peptide)
chain: FTCNQCGHHFTQKGNLLRHIKL
B16: Q9UKT9 (peptide)
chain: FSCEQCGAEFTQKGNLLRHIKL
B17: Q9UKT9 (peptide)
chain: FWCNICGAMFTQKGNLLRHIKL
B18: Q9UKT9 (peptide)
chain: FQCDVCGAVFTQKGNLLRHIKL
B19: Q9UKT9 (peptide)
chain: FRCNQCGRMFTQKGNLLRHIKL
B20: Q9UKT9 (peptide)
chain: FHCPICGHEFTQKGNLLRHIKL
B21: Q9UKT9 (peptide)
chain: FLCPICGHVFTQKGNLLRHIKL
B22: Q9UKT9 (peptide)
chain: FSCDVCGAKFTQKGNLLRHIKL
B23: Q9UKT9 (peptide)
chain: FYCPICGHPFTQKGNLLRHIKL
B24: Q9UKT9 (peptide)
chain: FRCPICGRYFTQKGNLLRHIKL
B25: Q9UKT9 (peptide)
chain: FLCNQCGHHFTQKGNLLRHIKL
B26: Q9UKT9 (peptide)
chain: LECPICGFRCTQKGNLLRHIKL
B27: Q9UKT9 (peptide)
chain: FVCNVCGAGFTQKGNLLRHIKL
B28: Q9UKT9 (peptide)
chain: FDCEQCGALFTQKGNLLRHIKL
B29: Q9UKT9 (peptide)
chain: FTCEVCGAAFTQKGNLLRHIKL
B30: Q9UKT9 (peptide)
chain: FGCPICGAHFTQKGNLLRHIKL
B31: Q9UKT9 (peptide)
chain: FHCNICGAQFTQKGNLLRHIKL
B32: Q9UKT9 (peptide)
chain: FVCEICGRWFTQKGNLLRHIKL
B33: Q9UKT9 (peptide)
chain: FKCEQCGARFTQKGNLLRHIKL
B34: Q9UKT9 (peptide)
chain: FWCDVCGAEFTQKGNLLRHIKL
B35: Q9UKT9 (peptide)
chain: FKCEICGAKFTQKGNLLRHIKL
B36: Q9UKT9 (peptide)
chain: FFCPICGHQFTQKGNLLRHIKL
B37: Q9UKT9 (peptide)
chain: FRCEVCGAGFTQKGNLLRHIKL
B38: Q9UKT9 (peptide)
chain: FDCDVCGAMFTQKGNLLRHIKL
B39: Q9UKT9 (peptide)
chain: FWCNQCGHEFTQKGNLLRHIKL
B40: Q9UKT9 (peptide)
chain: FKCDICGASFTQKGNLLRHIKL
B41: Q9UKT9 (peptide)
chain: FYCNQCGHFFTQKGNLLRHIKL
B42: Q9UKT9 (peptide)
chain: FLCEVCGACFTQKGNLLRHIKL
B43: Q9UKT9 (peptide)
chain: FRCNQCGHNFTQKGNLLRHIKL
B44: Q9UKT9 (peptide)
chain: FNCDVCGAIFTQKGNLLRHIKL
B45: Q9UKT9 (peptide)
chain: FQCPVCGARFTQKGNLLRHIKL
B46: Q9UKT9 (peptide)
chain: FHCSVCGHDFTQKGNLLRHIKL
B47: Q9UKT9 (peptide)
chain: FSCPICGAEFTQKGNLLRHIKL
B48: Q9UKT9 (peptide)
chain: FACNICGANFTQKGNLLRHIKL
B49: Q9UKT9 (peptide)
chain: LDCNQCGFYCTQKGNLLRHIKL
B50: Q9UKT9 (peptide)
chain: FGCPVCGAVFTQKGNLLRHIKL
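Note: jurkat cells carrying a lentiviral library of mutant zinc finger degrons fused to EGFP plus mCherry, mCherry+ cells FACS sorted, degron abundance counted by next-generation sequencing.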

In this test the target is no compound (DMSO). In words: log2 fold change of degron read counts, EGFP-low vs EGFP+ sorted cells; higher = lower degron-EGFP level without compound (poor expression or instability). The following applies: compound: DMSO control; 18 h.
Take B1: the “log2 fold change of degron read counts” value is -1.23. For B2 the value was 0.137; for B3, -2.83; for B4, 0.0517.

Turning to B5, the “log2 fold change of degron read counts” value is -1.25. For B6 the value was -0.781; for B7, 0.294. For B8 the value was -3.08; for B9, 0.0166. In the case of B10 it was -1.22. Consider B11, for which the “log2 fold change of degron read counts” value was -0.569. For the sequence B12, the “log2 fold change of degron read counts” value was -1.09.

In the case of B13, the “log2 fold change of degron read counts” value was -0.481. For B14 the value was -1.57. In the case of B15 it was -0.798; in that of B16, -2.37. Turning to B17, the “log2 fold change of degron read counts” value amounted to 0.792. B18: the “log2 fold change of degron read counts” value is -1.47.

In the case of B19, the “log2 fold change of degron read counts” value came to 0.331.

Regarding B20, the “log2 fold change of degron read counts” value was -0.0759. For B21 the value was -0.0505; for B22, -1.5; for B23, 0.569. In the case of B24 it was 0.643; in that of B25, -0.202; in that of B26, 0.513.

Consider B27, for which the “log2 fold change of degron read counts” value is -0.846.

B28: the “log2 fold change of degron read counts” value was -0.475. In the case of B29 it was -1.67; in that of B30, 0.115.

Take B31: the “log2 fold change of degron read counts” value was -0.578. For B32 the value was -0.157. For B33 the value was -1.19; for B34, -1.63. In the case of B35 it was -1.67; in that of B36, -0.126; in that of B37, -1.83.

B38: the “log2 fold change of degron read counts” value was -0.772. In the case of B39 it was 0.318; in that of B40, -1.56; in that of B41, 1.29. In the case of B42 it was -1.48.

Turning to B43, the “log2 fold change of degron read counts” value was 0.496. For B44 the value was -0.793; for B45, -0.562. For B46 the value was -0.762; for B47, -0.802. For B48 the value was -0.934; for B49, 1.18; for B50, 0.0833.
